Assay results published in US20050228169A1 (published 2005).

Experiments:
[1] = biological target: T1, histidine-tagged KIAA1006 C-terminal truncated polypeptide (1-1157AA) (human, UniProt Q9Y2K9 1-1157); experiment: GST pull-down: GST (17 µg) on glutathione-Sepharose, 6 hours at 4° C.; Western blot with anti-penta His antibody
T1 construct: Expressed in sf9 insect cells by baculovirus and purified on cobalt resin; The junction of the tag is as noted for m1; also called C-terminal truncated product; C-terminal truncation product of KIAA1006 polypeptide
T1 sequence: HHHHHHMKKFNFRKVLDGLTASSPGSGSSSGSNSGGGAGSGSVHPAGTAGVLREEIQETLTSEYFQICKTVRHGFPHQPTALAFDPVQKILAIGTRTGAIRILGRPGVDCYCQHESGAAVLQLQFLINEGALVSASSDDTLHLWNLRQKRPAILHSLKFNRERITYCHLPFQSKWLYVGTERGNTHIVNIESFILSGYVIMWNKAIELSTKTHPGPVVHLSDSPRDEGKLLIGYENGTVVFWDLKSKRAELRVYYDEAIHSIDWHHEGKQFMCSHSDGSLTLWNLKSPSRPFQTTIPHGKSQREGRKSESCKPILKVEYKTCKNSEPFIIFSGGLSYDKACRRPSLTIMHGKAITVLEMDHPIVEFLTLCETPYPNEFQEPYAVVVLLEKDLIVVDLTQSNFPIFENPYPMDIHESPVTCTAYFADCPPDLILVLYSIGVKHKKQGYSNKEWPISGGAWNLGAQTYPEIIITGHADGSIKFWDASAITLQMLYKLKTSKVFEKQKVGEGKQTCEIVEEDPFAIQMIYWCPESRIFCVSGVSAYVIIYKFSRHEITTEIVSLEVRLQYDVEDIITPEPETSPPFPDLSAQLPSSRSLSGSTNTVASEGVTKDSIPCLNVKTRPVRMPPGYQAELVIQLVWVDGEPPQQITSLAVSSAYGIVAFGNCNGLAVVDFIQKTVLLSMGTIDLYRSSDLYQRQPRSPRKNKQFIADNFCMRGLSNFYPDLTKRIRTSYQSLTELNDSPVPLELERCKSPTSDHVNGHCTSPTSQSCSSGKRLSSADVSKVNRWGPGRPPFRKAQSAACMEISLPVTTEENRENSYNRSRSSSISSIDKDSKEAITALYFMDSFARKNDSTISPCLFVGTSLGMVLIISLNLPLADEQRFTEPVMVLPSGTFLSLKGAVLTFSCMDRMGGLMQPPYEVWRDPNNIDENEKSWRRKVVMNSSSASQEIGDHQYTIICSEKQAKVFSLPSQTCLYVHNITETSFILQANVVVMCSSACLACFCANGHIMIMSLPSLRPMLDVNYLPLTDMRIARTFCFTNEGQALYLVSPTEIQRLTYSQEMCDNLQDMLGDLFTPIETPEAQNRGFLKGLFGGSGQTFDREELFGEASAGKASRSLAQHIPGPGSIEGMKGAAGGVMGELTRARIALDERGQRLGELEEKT
Procedure: (§1) KIAA1006 polypeptide (the histidine-tagged KIAA1006 polypeptide described above) and its C-terminal truncated product (the histidine-tagged C-terminal truncation product of KIAA1006 polypeptide described above) purified with a cobalt resin were respectively mixed with glutathione-Sepharose (bed volume 10 μl) to which GST (17 μg) was bound, stirred for 6 hours at 4° C., and then centrifuged. The obtained supernatants (GST-glutathione-Sepharose unadsorbed fractions) were respectively added to glutathione-Sepharose (bed volume 10 μl) to which GST-syntaxin-1a (17 μg) was bound, and after stirring for 16 hours at 4° C., the resultants were subjected to centrifugation. The fractions adsorbed to GST-glutathione-Sepharose and the fractions adsorbed to GST-syntaxin-1a-glutathione-Sepharose were eluted with SDS-PAGE sample buffer, respectively, and the binding of syntaxin-1a to KIAA1006 polypeptide or to its C-terminal truncation product was analyzed by Western blotting using anti-penta His antibody (Qiagen).
(§2) For the SDS-PAGE, 4-12% Bis-Tris Gel (NOVEX) was used. The detection of a secondary antibody that was labeled with horseradish peroxidase was carried out using ECL Western blotting detection reagents (Amersham Pharmacia Biotech).

[2] = biological target: T2, histidine-tagged KIAA1006 polypeptide (1-1186AA) (human, UniProt Q9Y2K9 1-1186); experiment: as above
T2 construct: Expressed in sf9 insect cells by baculovirus and purified on cobalt resin as a soluble protein; also called full length ORF of KIAA1006
T2 sequence: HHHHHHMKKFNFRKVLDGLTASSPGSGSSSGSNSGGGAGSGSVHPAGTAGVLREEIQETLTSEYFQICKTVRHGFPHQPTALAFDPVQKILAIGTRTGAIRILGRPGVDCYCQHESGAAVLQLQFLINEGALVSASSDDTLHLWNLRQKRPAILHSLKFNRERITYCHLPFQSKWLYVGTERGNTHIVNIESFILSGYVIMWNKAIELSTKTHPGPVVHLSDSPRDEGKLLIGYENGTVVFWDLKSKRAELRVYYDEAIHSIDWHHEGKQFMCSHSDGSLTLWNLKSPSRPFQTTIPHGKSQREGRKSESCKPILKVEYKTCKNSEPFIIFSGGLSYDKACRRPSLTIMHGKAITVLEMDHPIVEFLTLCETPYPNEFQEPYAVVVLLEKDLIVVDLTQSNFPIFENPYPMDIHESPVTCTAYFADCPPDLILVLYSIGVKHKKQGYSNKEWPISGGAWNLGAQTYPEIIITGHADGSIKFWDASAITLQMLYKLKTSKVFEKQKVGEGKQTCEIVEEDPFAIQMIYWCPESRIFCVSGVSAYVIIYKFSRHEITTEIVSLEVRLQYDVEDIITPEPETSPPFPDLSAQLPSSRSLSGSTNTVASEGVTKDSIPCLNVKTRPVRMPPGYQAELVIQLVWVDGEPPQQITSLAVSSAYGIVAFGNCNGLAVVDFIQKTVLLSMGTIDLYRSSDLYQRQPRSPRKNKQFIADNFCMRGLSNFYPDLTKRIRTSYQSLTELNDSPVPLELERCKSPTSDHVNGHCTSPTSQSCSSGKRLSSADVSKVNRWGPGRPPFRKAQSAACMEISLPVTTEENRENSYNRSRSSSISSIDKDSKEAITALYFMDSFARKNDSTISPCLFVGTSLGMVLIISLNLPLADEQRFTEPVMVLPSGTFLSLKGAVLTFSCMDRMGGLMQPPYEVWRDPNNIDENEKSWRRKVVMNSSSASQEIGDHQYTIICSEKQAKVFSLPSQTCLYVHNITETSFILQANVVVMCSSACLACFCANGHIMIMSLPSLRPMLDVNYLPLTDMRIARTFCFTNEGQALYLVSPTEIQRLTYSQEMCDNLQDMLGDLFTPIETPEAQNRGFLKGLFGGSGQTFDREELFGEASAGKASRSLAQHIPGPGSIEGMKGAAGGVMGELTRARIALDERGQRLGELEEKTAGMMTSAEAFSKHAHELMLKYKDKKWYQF
Procedure: as §1, §2

B1: glutathione S-transferase (GST) (other)
chain: not shown
notes: Control protein
B1: no binding [1]; no binding [2].
